The text below walks through data of PMC7819943, “Rice protein-binding microarrays: a tool to detect cis-acting elements near promoter regions in rice”.

Some of the results follow.

This experiment has as its target T1, OsWOX13 (Oryza sativa, UniProt Q5QMM3 1-267).
T1 sequence: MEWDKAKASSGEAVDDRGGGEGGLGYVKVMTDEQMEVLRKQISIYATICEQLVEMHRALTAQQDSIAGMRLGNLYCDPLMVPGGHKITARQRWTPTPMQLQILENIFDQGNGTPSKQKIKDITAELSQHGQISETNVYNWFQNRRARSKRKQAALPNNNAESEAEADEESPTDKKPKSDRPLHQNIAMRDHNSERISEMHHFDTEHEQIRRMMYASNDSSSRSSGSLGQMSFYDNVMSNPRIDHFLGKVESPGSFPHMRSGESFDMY
As to the kind of experiment: protein-binding microarray (RPBM); PBS, 2% BSA, 51.3 ng/ul salmon testes DNA, 50 uM zinc acetate, 200 nM TF, 25 C, 1 h; high values mean tight binding. The following applies: protein: recombinant; tags: N-terminal polyhistidine and DsRed monomer fusion (pET32a); label: CyDye5-dUTP incorporated in the synthesized complementary strand; 3' TTTTT single-stranded linker to array surface; dsDNA, one strand shown. The essentials: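 For the binding signal, per-feature fluorescence intensity was read in arbitrary units on an Axon 4000B scanner. Before scanning, a 2% BSA-blocked custom Agilent array made double-stranded with Cy5-dUTP was washed after 1 h at 25 °C with 200 nM protein and 50 µM zinc acetate. The proteins were Ni–NTA-purified transcription factors with N-terminal polyhistidine and DsRed fusions, expressed in E. coli BL21-CodonPlus.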
On to “GCTGATCTGCTCTGACTGACCCCATCATCGCTGTTGGCTGCGGAGTCACCTAGTGCAG”, for which the binding signal is 4700 fluorescence intensity (a.u.).
In the case of “GTATACAATGATTAAAGTATTTACTGTTACAATATTTAATCGGAGTCACCTAGTGCAG”, the binding signal is 5610 fluorescence intensity (a.u.).
The result for “TGTCGCTTATAATTATGCATATCAGCCAAAATTTAAACTTCGGAGTCACCTAGTGCAG” reads 3550 fluorescence intensity (a.u.); that for “ATGACCTTAATTTACCTATATAAACCCAGGCCACGTCAGCCGGAGTCACCTAGTGCAG”, 8620 fluorescence intensity (a.u.).
On to “ATTCCAATAGGCAATCAAAATCAGGTCACACCCTCCTCTCCGGAGTCACCTAGTGCAG”, for which the binding signal is 8810 fluorescence intensity (a.u.).
The result for “TAGTTGATAGCTGGCTATAATAGTATACTATTGTACGTGCCGGAGTCACCTAGTGCAG” reads 3660 fluorescence intensity (a.u.); that for “TAGCGTATGATTAATTAAGTTTTAATTAAAATAAACCGAACGGAGTCACCTAGTGCAG”, 19200 fluorescence intensity (a.u.).
In the case of “TATAAAGATTATAATATATATAAATGTATGTCATTACATTCGGAGTCACCTAGTGCAG” it was 4540 fluorescence intensity (a.u.); in that of “TTTTGCTTGATTGGTGGTCTGATGTATTTGATGAGTGCGACGGAGTCACCTAGTGCAG”, 31300 fluorescence intensity (a.u.).
In the case of “ATTACAAATTTAGTAATCAAATCAACACATAACTATATGTCGGAGTCACCTAGTGCAG” it was 20000 fluorescence intensity (a.u.).
For “GAGATTGATTGCATATCAGAAGTAAATGATTTCAACAGATCGGAGTCACCTAGTGCAG”, the binding signal was 54400 fluorescence intensity (a.u.).
In the case of “TGCAGATAGAGAGAAACGCAGTGATTGCGGGCAACCTCCCCGGAGTCACCTAGTGCAG” it was 3380 fluorescence intensity (a.u.); in that of “CATATTAAAGTGTTGATTGATGGAGAGAGGGATTTCATCACGGAGTCACCTAGTGCAG”, 25800 fluorescence intensity (a.u.).
On to “AATGGGACTTTGCCTGATTGATAGGGCGCCACGTGGCCCACGGAGTCACCTAGTGCAG”, for which the binding signal was 29500 fluorescence intensity (a.u.).
In the case of “ATTTTCTTTGATAATTAGGACATTTAAATTCCACAGCAACCGGAGTCACCTAGTGCAG” it was 6690 fluorescence intensity (a.u.); in that of “GAAACAGATTGGAAAACTAGAGGAGAAGAACAGGTGCAATCGGAGTCACCTAGTGCAG”, 27000 fluorescence intensity (a.u.).
Turning to “TATGATTTTAAATTCGTCATACTCTAGTTAGCCTAGAAAACGGAGTCACCTAGTGCAG”, the binding signal was 4190 fluorescence intensity (a.u.).
In the case of “TAAAATTTGAAACAAATTTTCAGCAGGTTATTGCAACGATCGGAGTCACCTAGTGCAG” it was 11600 fluorescence intensity (a.u.).
Turning to “TATAGATTAACAATTACTTTTGAATATTTGCATGCTTGCTCGGAGTCACCTAGTGCAG”, the binding signal was 16600 fluorescence intensity (a.u.).
With “AGACAAAATTACCTTCATTTTAAAATTTAATACGGACTGTCGGAGTCACCTAGTGCAG”, the binding signal was 5780 fluorescence intensity (a.u.).
In the case of “ACAATCGGATTCTAATTAAAGCTCATGATTTTAAGCGAATCGGAGTCACCTAGTGCAG” it was 9400 fluorescence intensity (a.u.); in that of “AATATTTAATTTAGGAGAATTGAACTATTGAGTTTGATCACGGAGTCACCTAGTGCAG”, 9280 fluorescence intensity (a.u.); in that of “CTATTTTATAAATTTATTTATTTATTTATTATACTTCACTCGGAGTCACCTAGTGCAG”, 5120 fluorescence intensity (a.u.).
Take “TTAGATGATTTGTTTGCTTACTTCCATTCTAGCAGATAGACGGAGTCACCTAGTGCAG”: the binding signal was 18500 fluorescence intensity (a.u.).
With “GGTGTTAAGTGAAAAGATTGGTAAATCCCTGGTGCATTGTCGGAGTCACCTAGTGCAG”, the binding signal was 3850 fluorescence intensity (a.u.).
In the case of “GTTAATTAATTATATTATAATAATTCTCTCAATTTGTCGCCGGAGTCACCTAGTGCAG” it was 65500 fluorescence intensity (a.u.); in that of “TGTCTATCAATCAGATTTGTGCAATCTTAGCTCCCCTGTACGGAGTCACCTAGTGCAG”, 25900 fluorescence intensity (a.u.).
Regarding “AACTAACAGATTATTCTATGTCGGTTTATTATAATCCAACCGGAGTCACCTAGTGCAG”, the binding signal was 15700 fluorescence intensity (a.u.).
The result for “GAGCCTAATTAGTCCATGATAAGCCATAAGTGTTACGGTACGGAGTCACCTAGTGCAG” reads 12200 fluorescence intensity (a.u.); that for “CCTTATTAAATCAATTAATAAGCACTTATTTAGTTCAGGCCGGAGTCACCTAGTGCAG”, 27400 fluorescence intensity (a.u.).
The result for “TGGGCTGATTTGCGAAAACGTATTCTGAAAGACCAAAACCCGGAGTCACCTAGTGCAG” reads 6080 fluorescence intensity (a.u.); that for “TTCCAAATAAACCAATCTAGATTGGGACGCCTAATACAATCGGAGTCACCTAGTGCAG”, 12400 fluorescence intensity (a.u.); that for “TTAGTCAATCAACTTACCTTATATGCAAAAGCGCACAAGCCGGAGTCACCTAGTGCAG”, 26300 fluorescence intensity (a.u.).
“GGTGGGGCCTATGATTGGCAACACAAAATGACTCCCCGAGCGGAGTCACCTAGTGCAG”: the binding signal is 21800 fluorescence intensity (a.u.).
In the case of “TAATGACAGATTAATTAGACTTAATAAATTTATCTCATGGCGGAGTCACCTAGTGCAG” it was 33500 fluorescence intensity (a.u.); in that of “CTAAATATGAATAATCTGTCTAGAACAAGATTATGGGCATCGGAGTCACCTAGTGCAG”, 7020 fluorescence intensity (a.u.); in that of “GTAGTAATTTAATCCGTTGCAGTGTTGCACAAATAGTGAACGGAGTCACCTAGTGCAG”, 5410 fluorescence intensity (a.u.).
For the sequence “TTCTTAAATTTTCTATATTTATCCGTTGAAATTTACACAACGGAGTCACCTAGTGCAG”, the binding signal was 4180 fluorescence intensity (a.u.).
The result for “CATAAACAAAATCAGAGAATCCCAACTGTTCCACTTGACGCGGAGTCACCTAGTGCAG” reads 3630 fluorescence intensity (a.u.).
In the case of “ATTTGACCCTGTATTAATTATCCCTTCTTAAAGATTTTGTCGGAGTCACCTAGTGCAG” it was 3400 fluorescence intensity (a.u.); in that of “AACCGGGAGATTGGAATATCTTAGAGAAACGCTCTTTTCACGGAGTCACCTAGTGCAG”, 6520 fluorescence intensity (a.u.); in that of “GTTAATGAATTTATACACATATATATCTAGATTTATTAATCGGAGTCACCTAGTGCAG”, 5520 fluorescence intensity (a.u.).
